# Assay results from the supplement of paper PMC3334620.
# The full ranking holds about 33,000 sequences; the median of “E-score (-0.5 to 0.5)” is about -0.016, and the highest 2% start at about 0.32. The list shows a part of the results.
# Biological target: T1, Stp1 (UniProt B3LFK1)
# T1 sequence: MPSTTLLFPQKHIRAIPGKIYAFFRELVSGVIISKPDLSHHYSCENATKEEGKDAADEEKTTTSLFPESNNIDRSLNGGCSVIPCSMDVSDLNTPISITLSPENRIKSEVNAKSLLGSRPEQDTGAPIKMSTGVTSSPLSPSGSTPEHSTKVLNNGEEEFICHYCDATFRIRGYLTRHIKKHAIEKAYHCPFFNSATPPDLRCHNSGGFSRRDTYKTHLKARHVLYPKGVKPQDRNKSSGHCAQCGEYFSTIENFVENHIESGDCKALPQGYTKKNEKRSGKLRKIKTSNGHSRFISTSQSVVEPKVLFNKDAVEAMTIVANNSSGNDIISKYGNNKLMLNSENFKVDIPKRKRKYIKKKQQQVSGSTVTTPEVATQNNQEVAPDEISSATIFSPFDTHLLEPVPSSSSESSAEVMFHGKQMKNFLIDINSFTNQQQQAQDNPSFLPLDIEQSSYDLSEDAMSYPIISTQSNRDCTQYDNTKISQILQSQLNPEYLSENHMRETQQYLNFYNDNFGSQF
# Assay: PBM E-score (8-mer binding enrichment) (E-score (-0.5 to 0.5)); higher = stronger / more preferred TF binding; most listed sequences are background and not binding sites
# Conditions: protein concentration: 200 nM; construct: GST-full length
# How it was run: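 Each ungapped eight-base word and its reverse complement, pooled, received an E-score from the Universal PBM Analysis Suite. Underlying scans, normalised with masliner, recorded fluorescent anti-GST bound to GST-tagged yeast transcription factors. These were applied at about 100-200 nM to universal all-10-mer Agilent arrays double-stranded by primer extension.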
row,Sequence,PBM E-score
1,CATAAGCA,-0.186
2,TAACACCA,0.0396
3,AACATACT,0.00864
4,ACATGTTA,0.0118
5,CTAGTATC,-0.00688
6,AGCCGAGG,0.142
7,AATTTGAA,0.105
8,GATCTAGC,-0.0987
9,CCGATAAG,-0.0367
10,CTATATGC,0.00966
11,CGACGCTA,-0.0819
12,CCCGTGCA,0.0223
13,CCTCAGAG,-0.135
14,GATTGAAA,0.0968
15,AGCCTTAG,0.096
16,AGGTGTGC,-0.0377
17,ACATTATG,0.0757
18,ATAGTGGC,-0.0666
19,ATAGGGGG,-0.349
20,AGTGGAGA,-0.0407
21,CTCACGAC,-0.128
22,AAGGCTGG,-0.295
23,CCCAAAAG,-0.0623
24,AGTCTGGC,-0.207
25,CGAACATC,-0.0281

row,Sequence,PBM E-score
1,GTCCCAGA,-0.209
2,ACGACAGT,-0.00493
3,AATACTCA,0.227
4,TACGCGCA,0.139
5,GATCCTTA,-0.093
6,AATACGGT,0.0778
7,GAACTCTC,-0.248
8,CTGGATCC,-0.0441
9,AGAAGGCG,0.2
10,GGGTGGGA,-0.15
11,CCGCCGTA,0.42
12,GCGCCTAC,0.35
13,CTGTGACC,-0.192
14,CCCGTGGA,-0.0712
15,CCCCCCAA,-0.234
16,GAGGAACA,-0.00245
17,ATGCGCTG,-0.258
18,ATTACTTG,0.0514
19,ACACGCAT,-0.0369
20,CACCAAAC,0.149
21,CCTTGGTC,-0.131
22,CTATAGAG,-0.224
23,CGCCACGC,0.253
24,CGTGTAAA,0.0915
25,AAAAGCTC,-0.131

row,Sequence,PBM E-score
1,GTGACCAC,-0.13
2,CCTAGACC,-0.2
3,CTACCATA,-0.0605
4,TAGCAAAA,0.111
5,AACCAGGA,-0.121
6,ACCAGTTG,-0.0174
7,ACTACTAA,0.037
8,CCCGGTAA,-0.117
9,AATCTTTA,0.0281
10,CTAGTCTA,-0.109
11,TCCCTGAA,-0.0599
12,AAATTCGT,0.23
13,AACTCTAT,-0.0127
14,CTCGATAC,0.0352
15,AAGTGTAT,0.0442
16,AGCAAAAG,0.0579
17,CCTAGAAA,-0.113
18,AGGTTTTA,-0.0167
19,CAATATGC,0.0141
20,ATCGCGTC,-0.0915
21,CGCTCCTA,-0.0592
22,ACTTGACT,-0.179
23,CGATTGCC,0.212
24,CGCCGCAA,0.421
25,AGTGCACG,0.0422

row,Sequence,PBM E-score
1,CAGGATGA,-0.228
2,TGTAAAAA,0.0355
3,AACGCTGA,0.00122
4,TACTTAAA,-0.0622
5,CGCAGGAA,-0.0921
6,CCTATCAA,0.0423
7,CAGCGGCG,0.34
8,ACTACCCC,-0.343
9,GTGAACAA,0.0755
10,AATCTGTC,-0.0151
11,ACGATACA,0.0157
12,ACGCTTGC,-0.232
13,AAAGACGC,0.132
14,AAACAGGG,-0.17
15,ACCCCGAA,-0.0431
16,AAGTCCTA,-0.181
17,AGTGCTAG,-0.251
18,ATCGGAGA,-0.135
19,GAACGGCC,0.233
20,AACTAGCT,-0.0901
21,ATGCGTTC,0.0715
22,AGAGGACG,-0.0578
23,CTACTTGC,0.0115
24,CCTGCCAA,-0.172
25,CTATACAC,-0.128

row,Sequence,PBM E-score
1,TATCTCCA,0.103
2,AACCATAT,0.0162
3,CGGAGCGA,0.129
4,GGTTAGGA,-0.23
5,AACAGCTT,-0.113
6,GGAGTAAA,0.213
7,ATCGCGCC,0.394
8,ATTCGGGG,-0.0601
9,ATAAGCTG,-0.0204
10,CACCTGAC,-0.078
11,CGGCTCCC,0.187
12,CGCGCTTC,-0.0103
13,GCCAAGAA,0.0988
14,TCTCAAAA,0.179
15,CAAGTGGC,0.229
16,CTAGTATA,-0.0202
17,AGGGTACT,-0.135
18,ATCCAGCG,-0.05
19,CGCACAAA,0.178
20,ACGAACCT,0.0573
21,ATTCGGAA,0.11
22,ACTCAGAG,0.102
23,AGACTCAT,-0.164
24,TAGACATA,0.0107
25,GGTGCGGA,0.148

row,Sequence,PBM E-score
1,GAAGCCTC,0.156
2,TGAGTCCA,-0.0597
3,AATGATGT,-0.00207
4,AACTACAA,0.141
5,AGTTCCGG,-0.207
6,GCCTTACC,0.0896
7,GCACCGTA,0.215
8,ACTCGGTG,-0.14
9,CTCTTTCC,-0.363
10,ACACGGAG,0.295
11,CCTACTGA,-0.0981
12,ATGTAACC,-0.00736
13,CAGACAAC,0.0536
14,CGCGCTAC,0.117
15,GGTCCCGA,-0.169
16,GGGTTTCA,-0.0207
17,GCCGGATA,0.119
18,TGTCAACA,0.038
19,ATAGCCTC,-0.0458
20,AAACTTGG,-0.0623
21,AAGACTCC,-0.123
22,ACTAGCCA,0.00416
23,CGGGTGTC,-0.185
24,CAGCTTTA,0.00187
25,AGCGCCTA,0.182

row,Sequence,PBM E-score
1,CGAGTGTC,-0.138
2,GTGGACAA,0.075
3,AAGGGTCC,-0.159
4,CTATTACA,-0.0391
5,GGGTCGGA,-0.224
6,ACTGGTGG,-0.24
7,GAACCTCA,-0.11
8,CGATCGCC,0.158
9,CCAGCTAC,-0.343
10,AAAGGAGC,-0.0255
11,CACGCTAC,-0.0658
12,GAAGTACA,-0.0313
13,TAAGCCCA,-0.121
14,AACGTCCC,-0.208
15,TGGACCCA,-0.121
16,AAGCGAGC,0.0162
17,AACCAATC,0.0465
18,GCAAGCGC,-0.0956
19,ACGAAAGT,0.146
20,AAATGAGT,0.0546
21,GGACACCC,-0.369
22,GTGAAATA,0.0371
